Measurements published in the supplement of paper PMC3334620.
Whole data set: some 33,000 sequences, median “E-score (-0.5 to 0.5)” near -0.04, cut for the highest 2% near 0.36. Some of the results follow.

biological target: T1, Hmlalpha2 (UniProt P0CY09); test: PBM E-score (8-mer binding enrichment) (E-score (-0.5 to 0.5)); higher = stronger / more preferred TF binding; most listed sequences are background and not binding sites; settings: protein concentration: 200 nM; construct: GST-full length
T1 sequence: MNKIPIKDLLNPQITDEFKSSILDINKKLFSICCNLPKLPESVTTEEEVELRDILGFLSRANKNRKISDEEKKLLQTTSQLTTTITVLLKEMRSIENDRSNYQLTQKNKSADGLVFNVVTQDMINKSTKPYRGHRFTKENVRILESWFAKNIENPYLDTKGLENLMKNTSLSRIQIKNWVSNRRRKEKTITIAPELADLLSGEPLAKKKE
Outline: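 Each ungapped eight-base word and its reverse complement, pooled, received an E-score from the Universal PBM Analysis Suite. Underlying scans, normalised with masliner, recorded fluorescent anti-GST bound to GST-tagged yeast transcription factors. These were applied at about 100-200 nM to universal all-10-mer Agilent arrays double-stranded by primer extension.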

Row | Sequence | PBM E-score
1 | ACACTTAG | 0.112
2 | GCAGTGGA | -0.17
3 | GATTACGA | 0.301
4 | AGCGGGAC | -0.128
5 | CCTGCAGA | 2e-05
6 | GCGTCGTA | 0.144
7 | AACCGCCC | -0.0483
8 | CACAATGC | 0.00497
9 | CCCAGATC | -0.252
10 | GTTTGTAA | 0.337
11 | CAAGAGTC | -0.0613
12 | ACATTCTG | 0.128
13 | ATACCCGG | -0.118
14 | GCATAACC | -0.188
15 | CAGACAAA | 0.134
16 | CACTGGGG | -0.211
17 | ATGGAAAC | -0.195
18 | CCTAACTA | 0.021
19 | CGCTCCCA | -0.282
20 | GGCACCCA | -0.262
21 | CTACACAA | 0.369
22 | CCTCCATA | -0.162

Row | Sequence | PBM E-score
23 | ATAGCCGG | 0.0442
24 | AAAGCGTT | -0.0784
25 | CCCGTAGG | -0.194
26 | CGAGTTAG | 0.066
27 | GACAGGGA | -0.0965
28 | AGCGGGGG | -0.397
29 | CAGGCGAA | 0.0909
30 | AATAGTAA | 0.132
31 | AAGGCTCA | -0.0424
32 | ATGGCCCG | -0.209
33 | AAGTTGCC | -0.261
34 | GCTGACAC | 0.0946
35 | ACATCATG | 0.214
36 | TACTCTAA | 0.00046
37 | AGGGGTCA | -0.18
38 | CATTCGTA | 0.158
39 | CCTGCAAG | -0.314
40 | AGGCACTG | -0.0971
41 | CGAAGACA | -0.108
42 | AGAGCCCT | -0.181
43 | TGACGGAA | -0.0498
44 | AACGCGCT | 0.222

Row | Sequence | PBM E-score
45 | GCAAATTA | 0.107
46 | CCACTGGC | -0.115
47 | CGGCGAGC | -0.196
48 | GCGATAAA | -0.0654
49 | ACTGGGAG | -0.218
50 | CGATCAAG | 0.0473
51 | AGTTACTA | 0.122
52 | GACTAGGA | -0.13
53 | GAGCAACA | 0.0944
54 | CTGGCCTA | -0.192
55 | CACGGCTA | 0.211
56 | GCGAGATA | -0.0725
57 | AACTATCG | -0.0993
58 | TCGGACCA | -0.181
59 | CTATGACC | -0.133
60 | ACTAGCTA | -0.0302
61 | AGGGCTAA | -0.0732
62 | ACGAGAGC | -0.211
63 | GCGCTTTA | 0.0987
64 | CCTTTCGA | -0.164
65 | CGCTTCAA | -0.0744
66 | AGTTCTTC | -0.0111

Row | Sequence | PBM E-score
67 | ACTACACG | 0.454
68 | ATCTTTTG | 0.0487
69 | ACATGCCG | 0.356
70 | TATGGGGA | -0.0461
71 | AAGGACGT | 0.178
72 | ATCGGTAC | -0.0952
73 | TAGCGCTA | 0.0261
74 | ATCATAGA | 0.0951
75 | CTATCGTC | -0.127
76 | ACGAAAAC | 0.227
77 | CTGGCTTC | -0.22
78 | AAGCGGCT | -0.0809
79 | AAAGTCGT | -0.0456
80 | CAAAACTG | 0.105
81 | ATCCCAAC | -0.0423
82 | ACAGGCGA | 0.0422
83 | CTAGTAAA | 0.318
84 | ATTAAACG | 0.291
85 | CGACTGCC | -0.184
86 | ACAGCTCG | -0.12
